Experimental findings from paper PMC4336329 (PLoS ONE, 2015) are described below.

The structures appear in SMILES notation. Hit rate of the full screen: of about 310,000 compounds, about 14,000 (4.5%) showed an effect of 50% or more. Effects have a minus sign here. The list shows a part of the results.
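Further: peak tail current of the secondary pulse compared with the same well before compound.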

In the assay the target is human ether-à-go-go-related gene (hERG) potassium channel (human, UniProt Q12809). The assay can be described thus: primary screen, population patch clamp on CHO cells stably expressing hERG.
Sequence of human ether-à-go-go-related gene (hERG) potassium channel (Q12809 whole entry, looked up): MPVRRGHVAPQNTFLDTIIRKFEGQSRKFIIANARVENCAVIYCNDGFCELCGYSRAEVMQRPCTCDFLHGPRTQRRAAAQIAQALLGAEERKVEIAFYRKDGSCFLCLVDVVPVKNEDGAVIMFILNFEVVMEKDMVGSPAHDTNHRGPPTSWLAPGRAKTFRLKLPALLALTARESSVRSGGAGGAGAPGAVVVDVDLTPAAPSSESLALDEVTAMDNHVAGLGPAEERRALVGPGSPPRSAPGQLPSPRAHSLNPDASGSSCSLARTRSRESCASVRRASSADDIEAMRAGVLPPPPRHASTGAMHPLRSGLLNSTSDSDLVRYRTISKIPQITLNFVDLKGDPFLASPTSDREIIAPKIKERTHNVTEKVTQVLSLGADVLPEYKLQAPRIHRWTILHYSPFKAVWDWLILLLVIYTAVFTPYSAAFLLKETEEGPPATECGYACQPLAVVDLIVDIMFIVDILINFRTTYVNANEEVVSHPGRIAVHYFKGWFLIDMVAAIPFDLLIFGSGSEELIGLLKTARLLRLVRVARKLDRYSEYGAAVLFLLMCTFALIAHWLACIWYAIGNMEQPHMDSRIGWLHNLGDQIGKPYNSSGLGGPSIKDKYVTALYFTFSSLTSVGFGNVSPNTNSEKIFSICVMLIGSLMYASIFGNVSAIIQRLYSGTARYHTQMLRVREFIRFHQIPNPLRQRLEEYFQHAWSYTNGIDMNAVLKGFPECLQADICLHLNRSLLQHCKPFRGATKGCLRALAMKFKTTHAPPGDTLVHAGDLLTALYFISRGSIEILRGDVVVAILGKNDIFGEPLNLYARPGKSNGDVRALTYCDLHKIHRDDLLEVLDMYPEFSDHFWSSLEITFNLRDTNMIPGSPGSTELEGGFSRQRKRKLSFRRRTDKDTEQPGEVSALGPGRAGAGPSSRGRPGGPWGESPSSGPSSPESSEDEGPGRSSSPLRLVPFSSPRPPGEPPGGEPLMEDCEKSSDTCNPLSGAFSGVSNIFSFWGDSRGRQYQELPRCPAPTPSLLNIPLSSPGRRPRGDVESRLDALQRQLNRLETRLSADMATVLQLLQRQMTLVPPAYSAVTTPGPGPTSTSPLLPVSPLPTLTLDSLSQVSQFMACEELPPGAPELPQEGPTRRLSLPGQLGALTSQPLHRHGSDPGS
`Oc1ccccc1-c1nnc(SCCN2CCOCC2)n1Cc1ccccc1`: the “hERG current change (%, negative = inhibition) at 10uM” value is listed as -22.4%.

Regarding `O=C(O)CN1C(=O)C2C3C=CC(C2C1=O)C1C(=O)N(CC(=O)O)C(=O)C31` (stereo not drawn), the “hERG current change (%, negative = inhibition) at 10uM” value is recorded as 21.8%.

On to `CCOc1ccc(/C=N/Nc2ccccn2)cc1`, for which the “hERG current change (%, negative = inhibition) at 10uM” value is listed as -3.72%.

In the case of `CCOc1ncccc1C(=O)OCC(=O)Nc1ccc2c(c1)OCCO2`, the “hERG current change (%, negative = inhibition) at 10uM” value was 0.222%.

As to `Cc1[nH]n2c(=O)c3c(nc2c1-c1ccccc1)CCCC3`, the “hERG current change (%, negative = inhibition) at 10uM” value is -9.26%.

Regarding `COC(=O)c1ccccc1OCCCOc1ccc(C)cc1OC`, the “hERG current change (%, negative = inhibition) at 10uM” value is given as -8.44%.

Consider `O=C(CSc1nnc(COc2ccccc2)o1)c1ccccc1`, for which the “hERG current change (%, negative = inhibition) at 10uM” value is 1.95%.

For `O=C(CC(=O)Nc1cccc(F)c1)Nc1cccc(F)c1`, the “hERG current change (%, negative = inhibition) at 10uM” value is 3.41%.

On to `CCN(Cc1ccccc1)S(=O)(=O)c1cc(C(=O)NCC2CCCCC2)ccc1OC`, for which the “hERG current change (%, negative = inhibition) at 10uM” value is listed as -9.52%.

For the compound `OCc1cc(-c2ccc(Cl)c(Cl)c2)on1`, the “hERG current change (%, negative = inhibition) at 10uM” value is reported as 8.12%.

As to `Cc1cc(C)n(CC(=O)Nc2ccc3c(c2)OCO3)c(=O)c1C#N`, the “hERG current change (%, negative = inhibition) at 10uM” value is reported as 2.59%.

Turning to `O=C(CCNc1n[nH]c(=O)[nH]c1=O)N/N=C\c1cccc(OCc2ccccc2)c1`, the “hERG current change (%, negative = inhibition) at 10uM” value is 16.3%.

Turning to `C=C1C2C[C@@]3([C@@H]1O)[C@@H](C[C@@H]2O)[C@@]12C4[C@@H]3C[C@@H]1[C@@](C)(CC[C@@H]2O)CN4CC`, the “hERG current change (%, negative = inhibition) at 10uM” value came to 19.7%.

As to `Cc1cccc(NC(=O)CN2C(=O)N/C(=C/c3ccc(-c4cccc(C(=O)O)c4C)o3)C2=O)c1`, the “hERG current change (%, negative = inhibition) at 10uM” value is 14.3%.

On to `CC(Sc1ccccc1)C(=O)Nc1ccccc1C(=O)N1CCOCC1` (stereo not drawn), for which the “hERG current change (%, negative = inhibition) at 10uM” value came out at 5.66%.

`Cc1ccc(NC(=O)Nc2ccc3c(c2)C(=O)OC3)cc1Cl`: the “hERG current change (%, negative = inhibition) at 10uM” value came out at 18.7%.

On to `O=[N+]([O-])c1cccc(-c2nnc3ccccn23)c1`, for which the “hERG current change (%, negative = inhibition) at 10uM” value is recorded as -12.2%.

For `COc1cc(NC(=O)c2cc(S(=O)(=O)N3CCCCC3)c[nH]2)cc(OC)c1`, the “hERG current change (%, negative = inhibition) at 10uM” value is given as 11%.

Turning to `COc1ccc(CCNC(=O)c2ccccc2NS(=O)(=O)c2cc(C(=O)O)ccc2OC)cc1`, the “hERG current change (%, negative = inhibition) at 10uM” value amounted to 12.2%.

`CCOC(=O)c1c(NC(=O)CSc2nc3cc(Cl)ccc3s2)sc(C(C)=O)c1C`: the “hERG current change (%, negative = inhibition) at 10uM” value was -2.82%.

Take `Cc1cccc(NCc2ccc(N(C)C)cc2)n1`: the “hERG current change (%, negative = inhibition) at 10uM” value is 3.87%.

For `COCc1cc(=O)[nH]c(/N=C(\N)Nc2cccc(C)c2)n1`, the “hERG current change (%, negative = inhibition) at 10uM” value is reported as -1.25%.

`Cc1c(Cl)cccc1Nc1nc(N)nc(CSc2ncccn2)n1`: the “hERG current change (%, negative = inhibition) at 10uM” value is on record as -11.2%.

For the compound `COc1cc(OC)cc(C(=O)NC(C)CCc2ccccc2)c1` (stereo not drawn), the “hERG current change (%, negative = inhibition) at 10uM” value is -25.9%.
